# Data taken from PubChem BioAssay AID624296 (National Center for Advancing Translational Sciences (NCATS), 2012).
# Out of some 350,000 compounds screened, about 9,900 (2.8%) were called active. Inconclusive means that the source gave no clear call. Such entries were picked first, then a sample of the others. The call rests on the fitted dose curve; in most records, active means well fitted activation curve with a large enough effect; inconclusive means small, poorly fitted or top-dose-only effect; inactive means no such curve, though single readings can be large or run the other way. Potencies of inconclusive entries are left out as doubtful fits.
# Experiment: A quantitative high throughput screen for small molecules that induce DNA re-replication in MCF 10a normal breast cells. Further: nearly all actives have a fitted effect of over 50% in size. On activity, positive = re-replication: % of control where 0% means no effect.
# Conditions: MCF 10A DNA re-replication, Hoechst nuclear intensity, 48 h; activity, positive = re-replication: at 46.1 µM (top of the series)
# Potency means the concentration at half of the fitted maximal effect; tags describe the fitted curve by direction and shape.
SMILES,Potency,"activity, positive = re-replication"
CN1CCC(=NNC(=O)C(=O)Nc2cccc(Br)c2)CC1,"inconclusive [activator, full curve, poor fit]",
Cc1c(NC(=S)SCc2ccccc2)c(=O)n(-c2ccccc2)n1C,"inconclusive [activator, single point]",
Cc1ccc(/C=N/NC(=O)c2ccc3c(c2)OCCO3)s1,"inconclusive [activator, single point]",
CCOC(=O)C1(Cc2ccc(Cl)cc2)CCN(Cc2cnc(N)nc2)CC1,inactive,
CCOc1ccccc1OCC(=O)N/N=C(\C)Cc1ccc(OC)cc1,"inconclusive [activator, full curve, poor fit]",
CCC(=O)N1CCc2cc(Br)cc(S(=O)(=O)N(C)c3ccc(OC)cc3OC)c21,"inconclusive [activator, single point]",
Cc1cccc(OCC(=O)N(Cc2ccc(C)o2)C2CCS(=O)(=O)C2)c1 (stereo not given),"inconclusive [activator, partial curve, poor fit]",
CC(=O)C1=C(C)NC(SCC(=O)c2cc(Cl)ccc2Cl)=C(C#N)C1c1ccco1 (stereo not given),"inconclusive [activator, partial curve, poor fit]",
COCCCNC(=O)CSc1c2c(nc3ccc(Cl)cc13)CCCC2,active: 23.1 µM,
COC(=O)c1[nH]c2cccc(OC)c2c1NC(=O)C(C)N1CCC(C)CC1 (stereo not given),"inconclusive [activator, partial curve, poor fit]",
CC(=O)Oc1c(C(=O)c2nnc(C)o2)c(=O)n(Cc2ccccc2)c2ccccc12,"inconclusive [activator, full curve, poor fit]",
Cn1cc(CN2CCCC(C(=O)Nc3ccc(-c4cccc(F)c4)cc3)C2)cn1 (stereo not given),"inconclusive [activator, single point]",
CCn1nc(NC(=O)CC(C)C)c2cc3ccc(C)cc3nc21,"inconclusive [activator, partial curve, poor fit]",
Cc1noc(C)c1CSc1nnc(C)c(=O)[nH]1,inactive,
COc1ccccc1C1(O)CCN(C(=O)c2cccs2)CC1,inactive,
COc1cc(C=CC(=O)OCC=Cc2ccc3c(c2)OCO3)cc(OC)c1OC,"inconclusive [activator, partial curve, poor fit]",
Nc1nc2[nH]cc(CCc3ccc(C(=O)NC(CCC(=O)O)C(=O)O)cc3)c2c(=O)[nH]1 (stereo not given),inactive,
COc1cccc(C2=NN(C(=O)c3ccco3)C(c3ccco3)C2)c1 (stereo not given),"inconclusive [activator, single point]",
Cc1ccccc1S(=O)(=O)Cc1ccc(C(=O)NCCCN2CCCC2)o1,inactive,
COc1ccccc1OCC(=O)NCCSCc1cccc(Cl)c1,"inconclusive [activator, partial curve, poor fit]",
Cc1ccc(C(=O)NS(=O)(=O)c2ccccc2)cc1,"inconclusive [activator, partial curve]",
CCOC(=O)c1sc(N2N=C(C)/C(=C\c3ccc(OCC(=O)OC)cc3)C2=O)nc1C,"inconclusive [activator, partial curve, poor fit]",

SMILES,Potency,"activity, positive = re-replication"
C[C@@]12C(=O)N(c3cccc(F)c3)C(=O)N1[C@H](c1ccc(Cl)cc1)[C@@H]1C(=O)N(C3CCCCC3)C(=O)[C@@H]12,"inconclusive [activator, partial curve, poor fit]",
CC(=O)Nc1ccc(NC(=O)C(C)OC(=O)c2ccc3[nH]c(C)c(C)c3c2)cc1 (stereo not given),inactive,
Cc1ccc(-c2n[nH]c(=S)n2/N=C/C=C/c2ccccc2[N+](=O)[O-])cc1,"inconclusive [activator, partial curve, poor fit]",
O=C1CN(C(=O)Cn2ncc(Cl)c(Cl)c2=O)c2ccccc2N1,active: 1.84 µM,
CCc1ccc2nc(N(CCN(C)C)C(=O)c3ccc4ccccc4c3)sc2c1,inactive,
COc1cc2ccccc2cc1C(=O)OCc1nc2ccsc2c(=O)[nH]1,"inconclusive [activator, single point]",
Nc1ccc2c(C(F)(F)F)cc(C(F)(F)F)nc2n1,"inconclusive [activator, single point]",
C/C(=N\OCc1ccccc1)c1c(O)cc(C(C)C)n(-c2ccccc2)c1=O,"inconclusive [activator, full curve, poor fit]",
COc1cccc(-c2nn(-c3ccc(C)cc3)cc2C(=O)NCC(c2cccs2)N2CCOCC2)c1 (stereo not given),"inconclusive [activator, single point]",
O=[N+]([O-])c1ccc2c(c1)CNc1ccccc1O2,inactive,
CC(=O)Nc1nc(CC(C)C)cc(-c2ccco2)c1C#N,"inconclusive [activator, single point]",
CCc1sc(C(=O)NCCCn2ccnc2)cc1Br,inactive,
CC(=O)NCCCC(=O)NN1C(=S)N(Cc2ccccc2)C(=O)C1CC(=O)Nc1cccc(C)c1 (stereo not given),inactive,
CC(=O)Nc1cccc(NC(=O)C2CCN(C(=O)c3ccco3)CC2)c1,"inconclusive [activator, full curve, poor fit]",
Cc1onc(-c2ccccc2)c1C(=O)N/N=C/C(Br)=C/c1ccccc1,"inconclusive [activator, single point]",
CCOc1ccc(CN2CCN(CCCc3ccccc3)C(CCO)C2)cc1 (stereo not given),"inconclusive [activator, single point]",
COc1ccc(-c2cc(C3CCN(Cc4cccc(C(F)(F)F)c4)CC3)[nH]n2)cc1,"inconclusive [activator, single point]",
COc1ccc(CN2CCNC(=O)C2CC(=O)NC2CCCC2)cc1OC (stereo not given),"inconclusive [activator, full curve, poor fit]",
CN1C(C(=O)Nc2ccc(C(=O)O)cc2)=C(O)c2ccccc2S1(=O)=O,inactive,
CCOC(=O)CSC1=C(C#N)C(c2ccccc2F)C(C(C)=O)=C(C)N1 (stereo not given),"inconclusive [activator, single point]",
COc1ccc(C(=O)COC(=O)c2cccc(-n3cnnn3)c2)c(OC)c1,"inconclusive [activator, single point]",
O=Nc1c(-c2c(O)[nH]c3cc(Br)ccc23)[nH]c2ccccc12,inactive,

SMILES,Potency,"activity, positive = re-replication"
COc1ccc(NC(=O)c2sc3nc(C)cc(C)c3c2N)cc1,"inconclusive [activator, single point]",
COc1ccc(-c2oc3ccc(-c4ccc5c(c4)OCO5)cc3c2-c2ccc(OC)nc2)cc1,inactive,
Cc1nnc(SCc2cc(=O)[nH]c(/N=C(\N)Nc3ccccc3)n2)s1,active: 18.4 µM,
CCOC(=O)C(=O)N/N=C/c1ccco1,"inconclusive [activator, single point]",
Cc1ccc(NC(=O)Cc2n[nH]c(=S)n2C)cc1,"inconclusive [activator, partial curve, poor fit]",
COc1cc(C2c3[nH]c4ccccc4c3CCN2Cc2cn(C)nc2C)ccc1F (stereo not given),"inconclusive [activator, full curve, poor fit]",
COCCN1C=C(C(=O)OC)C(c2cc(Br)c(OC)c(OC)c2)C(C(=O)OC)=C1,"inconclusive [activator, partial curve, poor fit]",
Cc1ccccc1NS(=O)(=O)c1cc(C(=O)Nc2cccc([N+](=O)[O-])c2)ccc1C,"inconclusive [activator, single point]",
COc1cc(/C=C2/C(=O)NN(c3ccc(F)cc3)C2=O)cc(Cl)c1O,"inconclusive [activator, partial curve, poor fit]",
Cc1ccc2cc3c(NC(=O)C4CCCO4)nn(CC(C)C)c3nc2c1 (stereo not given),"inconclusive [activator, partial curve, poor fit]",
Cc1ccsc1/C=C/c1ccc2ccccc2n1,"inconclusive [activator, single point]",
Cn1c2ccccc2c(=O)c2ccc(NCc3ccc4c(c3)OCO4)cc21,"inconclusive [activator, partial curve, poor fit]",
CCN(CC)c1ccc2c(c1)OC(N)=C(C#N)C2c1cccnc1 (stereo not given),,inconclusive: 196% [activator]
CC(C)(C)c1ccc(C(=O)NC(=S)Nc2nc3c(s2)CCCC3)cc1,"inconclusive [activator, full curve]",
Cc1ccc(NC(=O)N2CCC(c3nc4c(nnn4Cc4c(F)cccc4Cl)c(=O)[nH]3)CC2)cc1,inactive,
O=C(CCNc1ccccc1)c1cccc([N+](=O)[O-])c1,active: 3.66 µM,
N#Cc1ccc(C(=O)Nc2nc(-c3cccs3)c(C(=O)C(F)(F)F)s2)cc1,"inconclusive [activator, partial curve, poor fit]",
Cc1ncc(CO)c(/C=N/NC(=S)Nc2ccc(F)cc2)c1O,"inconclusive [activator, single point]",
O=C(Nc1cccc(-c2csc(Nc3cccc(C(F)(F)F)c3)n2)c1)c1ccccc1,"inconclusive [activator, single point]",
Cc1ccc(C)c(NC(=O)Cn2ccn(-c3ccc4c(c3)OCO4)c(=O)c2=O)c1,inactive,
Cc1ccc(C(O)CN2C3=NCCN3c3ccccc32)cc1 (stereo not given),"inconclusive [activator, partial curve, poor fit]",
